# Data from a collection of fitness landscapes (doi:10.1016/j.celrep.2020.107928).
# Over roughly 81,000 sequences, “one-hybrid fitness for binding parS DNA” has its median near -0.17; the highest 2% begin near 0.51. Some of the results follow.
# B1: Caulobacter ParB omega fusion; a variant is named by its letters at X, in order, B8GW30 (parent)
# chain: MESVVVGEPGMSEGRRGLGRGLSALLGEVDAAPAQAPGEQLGGSREAPIEILQRNPDQPRRTFREEDLEDLSNSIREKGVLQPILVRPSPDTAGEYQIVAGERAWRAAQRAGLKTVPIMVRELDDLAVLEIGIIENVQRADLNVLEEALSYKVLMEKFERTQENIAQTIGKSXSHVANXMRLLXLPDEVQSYLVSGELTAXHARAIAAAADPVALAKQIIEGGLSVRETEALARKAPNLSAGKSKGGRPPRVKDTDTQALESDLSSVLGLDVSIDHRGSTGTLTITYATLEQLDDLCNRLTRGI
# Variants of: B1
# Experiment: one-hybrid fitness for binding parS DNA (scaled: cognate 1, non-cognate 0); higher = stronger binding
# Settings: with parS DNA site
# Procedure, shortened: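 Pre- and post-selection plasmids were Illumina-sequenced, three replicate libraries were pooled, and any variant with under 10 reads was removed. The libraries were Caulobacter ParB with four specificity codons randomised, selected in E. coli USO through a HIS3 reporter whose site is 19 bp from the promoter. Cells grew 48 hours at 37°C on M9 without histidine, with 0.1 mM IPTG and 5 mM 3-AT. Fitness is the log change in variant-to-wild-type read ratio, rescaled against cognate and non-cognate.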
row,Variant,one-hybrid fitness for binding parS DNA
1,GKTN,≤ 0.2
2,TRHH,≤ 0.2
3,DTPL,≤ 0.2
4,PKAQ,≤ 0.2
5,PTPT,≤ 0.2
6,WCIS,≤ 0.2
7,CTVG,≤ 0.2
8,ASII,≤ 0.2
9,AVGF,≤ 0.2
10,RSAA,0.554
11,EGPC,≤ 0.2
12,RSRY,0.55
13,FHKR,≤ 0.2
14,LSDD,≤ 0.2
15,TADD,≤ 0.2
16,PYST,≤ 0.2
17,MDVG,≤ 0.2
18,REYS,0.287
19,QTIL,≤ 0.2
20,STST,≤ 0.2
21,SDDT,≤ 0.2
22,CLKY,≤ 0.2
23,RKEQ,≤ 0.2
24,AISR,≤ 0.2
25,VTPG,≤ 0.2

row,Variant,one-hybrid fitness for binding parS DNA
1,RCSG,0.997
2,NNKT,≤ 0.2
3,MSEN,≤ 0.2
4,TRNK,≤ 0.2
5,AADA,≤ 0.2
6,NEMS,≤ 0.2
7,DSTN,≤ 0.2
8,TDVG,≤ 0.2
9,RKKC,0.694
10,YLHK,≤ 0.2
11,MFDS,≤ 0.2
12,QTTP,≤ 0.2
13,LLKY,≤ 0.2
14,GNPN,≤ 0.2
15,PCKM,≤ 0.2
16,VDRM,≤ 0.2
17,CPED,≤ 0.2
18,DVFS,0.259
19,HITL,≤ 0.2
20,LSTQ,≤ 0.2
21,IMLC,≤ 0.2
22,QGPG,≤ 0.2
23,RNLI,≤ 0.2
24,WIYS,≤ 0.2
25,QMYE,≤ 0.2

row,Variant,one-hybrid fitness for binding parS DNA
1,VKVA,≤ 0.2
2,NPSM,≤ 0.2
3,HPAA,≤ 0.2
4,GRFR,≤ 0.2
5,RWVK,≤ 0.2
6,VIRN,≤ 0.2
7,SWVS,≤ 0.2
8,YCNN,≤ 0.2
9,AKER,≤ 0.2
10,GWYR,≤ 0.2
11,GKYI,≤ 0.2
12,MLWG,≤ 0.2
13,VRRS,≤ 0.2
14,NFVG,≤ 0.2
15,LSGM,≤ 0.2
16,VYLF,≤ 0.2
17,THNR,≤ 0.2
18,DPIM,≤ 0.2
19,LQSW,≤ 0.2
20,YLGS,≤ 0.2
21,KSKF,≤ 0.2
22,PRIE,≤ 0.2
23,WLMT,≤ 0.2
24,RRDL,≤ 0.2
25,RPGR,≤ 0.2

row,Variant,one-hybrid fitness for binding parS DNA
1,PLRR,≤ 0.2
2,SNTD,≤ 0.2
3,PSMS,≤ 0.2
4,HLVE,≤ 0.2
5,RTMY,0.452
6,YVYC,≤ 0.2
7,RQQF,0.28
8,CVPR,≤ 0.2
9,FGKY,≤ 0.2
10,SVCN,≤ 0.2
11,PIPR,≤ 0.2
12,WTKC,≤ 0.2
13,VTQG,≤ 0.2
14,FMST,≤ 0.2
15,NRKY,≤ 0.2
16,QPVQ,≤ 0.2
17,RCKF,0.541
18,DFER,≤ 0.2
19,APNL,≤ 0.2
20,QYNN,≤ 0.2
21,PWTA,≤ 0.2
22,VHGC,≤ 0.2
23,RKQM,≤ 0.2
